# Source: the supplement of paper PMC12217912
# The list shows a part of the results. The full chains were built here from the parent and the listed change. Values near 0.05 are background.
# B1: TEV protease; numbered along this chain (parent)
# chain: MGESLFKGPRDYNPISSSICHLTNESDGHTTSLYGIGFGPFIITNKHLFRRNNGTLVVQSLHGVFKVKDTTTLQQHLVDGRDMIIIRMPKDFPPFPQKLKFREPQREERICLVTTNFQTKSMSSMVSDTSCTFPSGDGIFWKHWIQTKDGQCGSPLVSTRDGFIVGIHSASNFTNTNNYFTSVPKNFMELLTNQEAQQWVSGWRLNADSVLWGGHKVFMVKPEEPFQPVKEATQL
# Variants of: B1
# Experiment: raw area under fraction-flipped curve 0-4 h after induction (AUC4h, not background-subtracted), DNA-recorder readout of cleavage of the substrate (dimensionless); higher = more cleavage of the substrate by the protease variant
# Details: temperature: 34 °C; time window: 0-4 h after rhamnose induction
# Procedure: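 In vivo DNA recorder in E. coli TOP10(DE3) ΔrhaA at 34 °C. Each TEVp single-site mutant (parent TEVp 0) is paired with a single-site variant of the 7-mer TEVs (canonical ENLYFQ|S). The substrate sits between flexible linkers in a Bxb1-sfGFP-TEVs-SsrA fusion, so cleavage stabilises Bxb1 and speeds flipping of a recombination array, read by NGS. The value is the raw area under the fraction-flipped curve over 0-4 h after rhamnose induction (AUC4h), with ≥20 reads per time point. It is not background-subtracted; inactive controls average about 0.047.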
# 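Further: Bxb1 expression induced with 0.2% (w/v) L-rhamnose at OD600 near 0.5, cultures sampled hourly, flipped fraction per protease–substrate barcode pair counted by paired-end Illumina sequencing.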
Variant,area with substrate ENCYFQS,area with substrate ENDYFQS,area with substrate ENEYFQS,area with substrate ENGYFQS,area with substrate ENNYFQS,area with substrate ENQYFQS,area with substrate ENSYFQS,area with substrate ENYYFQS,area with substrate ENHYFQS,area with substrate ENKYFQS
MGESLFKGPRDYNPISSSICHLTNESDGHTTSLYGIGFGPFIITNKHLFRRNNGTLVVQSLHGVFKVKDTTTLQQHLVDGRDMIIIRMPKDFPPFPQKLKFREPQREERICLVTTNFQTKSMSSMVSDTSCTFPSGDGIFDKHWIQTKDGQCGSPLVSTRDGFIVGIHSASNFTNTNNYFTSVPKNFMELLTNQEAQQWVSGWRLNADSVLWGGHKVFMVKPEEPFQPVKEATQL [W141D],0.0482,0.049,0.0548,0.0325,0.058,0.0345,0.0608,0.0359,,
MGESLFKGPRDYNPISSSICHLTNESDGHTTSLYGIGFGPFIITNKHLFRRNNGTLVVQSLHGVFKVKDTTTLQQHLVDGRDMIIIRMPKDFPPFPQKLKFREPQREERICLVTTNFQTKSMSSMVSDTSCTFPSGDGIFLKHWIQTKDGQCGSPLVSTRDGFIVGIHSASNFTNTNNYFTSVPKNFMELLTNQEAQQWVSGWRLNADSVLWGGHKVFMVKPEEPFQPVKEATQL [W141L],0.0563,0.0828,0.0559,,,0.0559,,,0.055,0.0501
MGESLFKGPRDYNPISSSICHLTNESDGHTTSLYGIGFGPFIITNKHLFRRNNGTLVVQSLHGVFKVKDTTTLQQHLVDGRDMIIIRMPKDFPPFPQKLKFREPQREERICLVTTNFQTKSMSSMVSDTSCTFPSGDGIFWKEWIQTKDGQCGSPLVSTRDGFIVGIHSASNFTNTNNYFTSVPKNFMELLTNQEAQQWVSGWRLNADSVLWGGHKVFMVKPEEPFQPVKEATQL [H143E],0.0552,0.0549,0.0557,,,0.0591,0.0547,,0.055,
MGESLFKGPRDYNPISSSICHLTNESDGHTTSLYGIGFGPFIITNKHLFRRNNGTLVVQSLHGVFKVKDTTTLQQHLVDGRDMIIIRMPKDFPPFPQKLKFREPQREERICLVTTNFQTKSMSSMVSDTSCTFPSGDGIFWKHWSQTKDGQCGSPLVSTRDGFIVGIHSASNFTNTNNYFTSVPKNFMELLTNQEAQQWVSGWRLNADSVLWGGHKVFMVKPEEPFQPVKEATQL [I145S],0.0663,0.0888,,0.0657,,0.0719,0.0737,0.0559,0.0619,
MGESLFKGPRDYNPISSSICHLTNESDGHTTSLYGIGFGPFIITNKHLFRRNNGTLVVQSLHGVFKVKDTTTLQQHLVDGRDMIIIRMPKDFPPFPQKLKFREPQREERICLVTTNFQTKSMSSMVSDTSCTFPSGDGIFWKHWIYTKDGQCGSPLVSTRDGFIVGIHSASNFTNTNNYFTSVPKNFMELLTNQEAQQWVSGWRLNADSVLWGGHKVFMVKPEEPFQPVKEATQL [Q146Y],0.0794,0.0613,,0.0618,0.0471,0.0605,,0.0757,0.049,0.0603
MGESLFKGPRDYNPISSSICHLTNESDGHTTSLYGIGFGPFIITNKHLFRRNNGTLVVQSLHGVFKVKDTTTLQQHLVDGRDMIIIRMPKDFPPFPQKLKFREPQREERICLVTTNFQTKSMSSMVSDTSCTFPSGDGIFWKHWIQTKAGQCGSPLVSTRDGFIVGIHSASNFTNTNNYFTSVPKNFMELLTNQEAQQWVSGWRLNADSVLWGGHKVFMVKPEEPFQPVKEATQL [D149A],0.0557,0.0621,0.0627,,0.0577,0.0715,,,0.0343,0.0652
MGESLFKGPRDYNPISSSICHLTNESDGHTTSLYGIGFGPFIITNKHLFRRNNGTLVVQSLHGVFKVKDTTTLQQHLVDGRDMIIIRMPKDFPPFPQKLKFREPQREERICLVTTNFQTKSMSSMVSDTSCTFPSGDGIFWKHWIQTKDSQCGSPLVSTRDGFIVGIHSASNFTNTNNYFTSVPKNFMELLTNQEAQQWVSGWRLNADSVLWGGHKVFMVKPEEPFQPVKEATQL [G150S],0.0622,,0.0652,,0.0555,0.0599,0.0672,,0.0648,0.0563
MGESLFKGPRDYNPISSSICHLTNESDGHTTSLYGIGFGPFIITNKHLFRRNNGTLVVQSLHGVFKVKDTTTLQQHLVDGRDMIIIRMPKDFPPFPQKLKFREPQREERICLVTTNFQTKSMSSMVSDTSCTFPSGDGIFWKHWIQTKDGQCGSTLVSTRDGFIVGIHSASNFTNTNNYFTSVPKNFMELLTNQEAQQWVSGWRLNADSVLWGGHKVFMVKPEEPFQPVKEATQL [P155T],0.0537,0.0524,0.0728,0.0592,,0.0568,0.0643,,0.0532,
MGESLFKGPRDYNPISSSICHLTNESDGHTTSLYGIGFGPFIITNKHLFRRNNGTLVVQSLHGVFKVKDTTTLQQHLVDGRDMIIIRMPKDFPPFPQKLKFREPQREERICLVTTNFQTKSMSSMVSDTSCTFPSGDGIFWKHWIQTKDGQCGSPPVSTRDGFIVGIHSASNFTNTNNYFTSVPKNFMELLTNQEAQQWVSGWRLNADSVLWGGHKVFMVKPEEPFQPVKEATQL [L156P],0.0502,0.0451,0.0532,0.0576,0.0562,0.0499,0.0467,,0.0459,0.0485

# Same assay, conditions: temperature: 34 °C; time window: 0-4 h after rhamnose induction
Variant,area with substrate ENRYFQS,area with substrate ENTYFQS,area with substrate ENIYFQS,area with substrate ENMYFQS,area with substrate ENPYFQS,area with substrate ENVYFQS,area with substrate ENFYFQS,area with substrate ENWYFQS
MGESLFKGPRDYNPISSSICHLTNESDGHTTSLYGIGFGPFIITNKHLFRRNNGTLVVQSLHGVFKVKDTTTLQQHLVDGRDMIIIRMPKDFPPFPQKLKFREPQREERICLVTTNFQTKSMSSMVSDTSCTFPSGDGIFLKHWIQTKDGQCGSPLVSTRDGFIVGIHSASNFTNTNNYFTSVPKNFMELLTNQEAQQWVSGWRLNADSVLWGGHKVFMVKPEEPFQPVKEATQL [W141L],0.05,0.0538,,,,,,
MGESLFKGPRDYNPISSSICHLTNESDGHTTSLYGIGFGPFIITNKHLFRRNNGTLVVQSLHGVFKVKDTTTLQQHLVDGRDMIIIRMPKDFPPFPQKLKFREPQREERICLVTTNFQTKSMSSMVSDTSCTFPSGDGIFWKEWIQTKDGQCGSPLVSTRDGFIVGIHSASNFTNTNNYFTSVPKNFMELLTNQEAQQWVSGWRLNADSVLWGGHKVFMVKPEEPFQPVKEATQL [H143E],,0.0494,0.055,0.0361,0.0676,0.0593,,
MGESLFKGPRDYNPISSSICHLTNESDGHTTSLYGIGFGPFIITNKHLFRRNNGTLVVQSLHGVFKVKDTTTLQQHLVDGRDMIIIRMPKDFPPFPQKLKFREPQREERICLVTTNFQTKSMSSMVSDTSCTFPSGDGIFWKHWSQTKDGQCGSPLVSTRDGFIVGIHSASNFTNTNNYFTSVPKNFMELLTNQEAQQWVSGWRLNADSVLWGGHKVFMVKPEEPFQPVKEATQL [I145S],0.0647,0.0613,,0.0951,,0.0865,0.0653,0.0903
MGESLFKGPRDYNPISSSICHLTNESDGHTTSLYGIGFGPFIITNKHLFRRNNGTLVVQSLHGVFKVKDTTTLQQHLVDGRDMIIIRMPKDFPPFPQKLKFREPQREERICLVTTNFQTKSMSSMVSDTSCTFPSGDGIFWKHWIYTKDGQCGSPLVSTRDGFIVGIHSASNFTNTNNYFTSVPKNFMELLTNQEAQQWVSGWRLNADSVLWGGHKVFMVKPEEPFQPVKEATQL [Q146Y],,0.0564,,0.0682,0.0506,0.0822,,
MGESLFKGPRDYNPISSSICHLTNESDGHTTSLYGIGFGPFIITNKHLFRRNNGTLVVQSLHGVFKVKDTTTLQQHLVDGRDMIIIRMPKDFPPFPQKLKFREPQREERICLVTTNFQTKSMSSMVSDTSCTFPSGDGIFWKHWIQTKAGQCGSPLVSTRDGFIVGIHSASNFTNTNNYFTSVPKNFMELLTNQEAQQWVSGWRLNADSVLWGGHKVFMVKPEEPFQPVKEATQL [D149A],0.0801,0.0559,0.096,,,,,
MGESLFKGPRDYNPISSSICHLTNESDGHTTSLYGIGFGPFIITNKHLFRRNNGTLVVQSLHGVFKVKDTTTLQQHLVDGRDMIIIRMPKDFPPFPQKLKFREPQREERICLVTTNFQTKSMSSMVSDTSCTFPSGDGIFWKHWIQTKDSQCGSPLVSTRDGFIVGIHSASNFTNTNNYFTSVPKNFMELLTNQEAQQWVSGWRLNADSVLWGGHKVFMVKPEEPFQPVKEATQL [G150S],,0.0579,,,,,,
MGESLFKGPRDYNPISSSICHLTNESDGHTTSLYGIGFGPFIITNKHLFRRNNGTLVVQSLHGVFKVKDTTTLQQHLVDGRDMIIIRMPKDFPPFPQKLKFREPQREERICLVTTNFQTKSMSSMVSDTSCTFPSGDGIFWKHWIQTKDGQCGSTLVSTRDGFIVGIHSASNFTNTNNYFTSVPKNFMELLTNQEAQQWVSGWRLNADSVLWGGHKVFMVKPEEPFQPVKEATQL [P155T],0.0608,,,,,,,
MGESLFKGPRDYNPISSSICHLTNESDGHTTSLYGIGFGPFIITNKHLFRRNNGTLVVQSLHGVFKVKDTTTLQQHLVDGRDMIIIRMPKDFPPFPQKLKFREPQREERICLVTTNFQTKSMSSMVSDTSCTFPSGDGIFWKHWIQTKDGQCGSPPVSTRDGFIVGIHSASNFTNTNNYFTSVPKNFMELLTNQEAQQWVSGWRLNADSVLWGGHKVFMVKPEEPFQPVKEATQL [L156P],0.0439,0.0641,0.0661,0.0413,0.0637,0.0519,0.0523,
